Assay [1] has as its target T1, FLAG-tagged PRRT2 (proline-rich transmembrane protein 2) (UniProt E9PUL5).
T1 sequence: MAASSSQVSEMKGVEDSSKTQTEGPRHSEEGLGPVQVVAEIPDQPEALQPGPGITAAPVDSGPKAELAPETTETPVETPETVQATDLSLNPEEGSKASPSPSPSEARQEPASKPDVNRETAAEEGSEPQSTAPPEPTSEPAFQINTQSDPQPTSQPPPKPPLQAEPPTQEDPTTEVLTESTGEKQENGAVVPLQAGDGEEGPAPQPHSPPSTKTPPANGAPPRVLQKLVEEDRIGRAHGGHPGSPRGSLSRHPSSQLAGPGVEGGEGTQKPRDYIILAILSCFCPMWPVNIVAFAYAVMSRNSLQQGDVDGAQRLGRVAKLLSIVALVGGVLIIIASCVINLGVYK
Kind of assay: pull-down; FLAG-PRRT2 or FLAG-BAP expressed in HEK293T cells, purified by anti-FLAG M2 affinity gel and incubated with mouse brain synaptosome lysates; pellets analysed by western blotting; only the target purified.

Chains of the proteins cited; added tags and fusions are not shown.
UniProt P63044: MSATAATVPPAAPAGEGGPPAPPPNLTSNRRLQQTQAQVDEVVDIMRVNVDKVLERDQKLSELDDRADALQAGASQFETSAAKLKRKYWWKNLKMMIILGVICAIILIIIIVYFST
UniProt P63040: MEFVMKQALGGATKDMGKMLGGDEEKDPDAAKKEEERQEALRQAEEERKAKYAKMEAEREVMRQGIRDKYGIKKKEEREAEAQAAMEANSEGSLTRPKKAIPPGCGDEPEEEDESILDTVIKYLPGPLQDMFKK
UniProt P60879: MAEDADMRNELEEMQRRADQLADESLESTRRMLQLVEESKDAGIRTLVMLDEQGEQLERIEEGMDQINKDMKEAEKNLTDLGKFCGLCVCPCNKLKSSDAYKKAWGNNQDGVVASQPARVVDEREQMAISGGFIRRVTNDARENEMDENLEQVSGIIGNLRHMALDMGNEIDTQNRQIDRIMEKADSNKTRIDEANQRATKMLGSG
UniProt P46097: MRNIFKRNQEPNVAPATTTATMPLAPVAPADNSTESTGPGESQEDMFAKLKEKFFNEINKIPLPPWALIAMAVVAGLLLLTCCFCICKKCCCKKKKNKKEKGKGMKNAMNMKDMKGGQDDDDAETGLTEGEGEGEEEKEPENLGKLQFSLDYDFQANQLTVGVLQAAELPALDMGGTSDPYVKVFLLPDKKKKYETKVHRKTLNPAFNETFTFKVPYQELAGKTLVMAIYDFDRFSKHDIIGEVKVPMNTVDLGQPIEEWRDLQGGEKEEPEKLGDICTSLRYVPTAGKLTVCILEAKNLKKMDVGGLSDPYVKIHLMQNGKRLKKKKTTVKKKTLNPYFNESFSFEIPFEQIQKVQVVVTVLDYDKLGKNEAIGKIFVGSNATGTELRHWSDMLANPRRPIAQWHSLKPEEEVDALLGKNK

The target in assay [2] is FLAG-tagged bacterial alkaline phosphatase [phosphatase: P00634]. The description is as above.

These are yes or no findings as the source states them, for the method shown. In cells and extracts the contact can be indirect. Some binding calls cover weakened binding; strength is not graded here. For some assays here: Tags and fused reporters may be left off the sequences shown.

Take “VAMP2/synaptobrevin (from UniProt P63044 1-116)”: the binding result in assay [1] was “binds”; in assay [2], “no binding”. Take complexin 1 (from UniProt P63040 1-134): the binding entry in assay [1] is recorded as “no binding”. On to “synaptosomal-associated protein 25 kDa (from UniProt P60879 1-206)”, for which the binding result is listed as “binds” in assay [1] and “no binding” in assay [2]. The corresponding values for “synaptotagmin 2 (from UniProt P46097 1-422)” are “binds” and “no binding”.

B1: complexin 2 (protein, UniProt P84086 1-134)
chain: MDFVMKQALGGATKDMGKMLGGEEEKDPDAQKKEEERQEALRQQEEERKAKHARMEAEREKVRQQIRDKYGLKKKEEKEAEEKAALEQPCEGSLTRPKKAIPAGCGDEEEEEEESILDTVLKYLPGPLQDMFKK
B1: in assay [1], the binding result is reported as “no binding”.

Source of the values: paper PMC4826441.
